Article PMC4336329 (PLoS ONE, 2015)
The whole screen tested about 310,000 compounds, of which about 2,200 (0.71%) showed an effect of 50% or more. Effects have a minus sign here. The list shows a part of the results.

Biological target: human ether-à-go-go-related gene (hERG) potassium channel (human, UniProt Q12809)
Assay: primary screen, population patch clamp on CHO cells stably expressing hERG

human ether-à-go-go-related gene (hERG) potassium channel, sequence (Q12809 whole entry, looked up): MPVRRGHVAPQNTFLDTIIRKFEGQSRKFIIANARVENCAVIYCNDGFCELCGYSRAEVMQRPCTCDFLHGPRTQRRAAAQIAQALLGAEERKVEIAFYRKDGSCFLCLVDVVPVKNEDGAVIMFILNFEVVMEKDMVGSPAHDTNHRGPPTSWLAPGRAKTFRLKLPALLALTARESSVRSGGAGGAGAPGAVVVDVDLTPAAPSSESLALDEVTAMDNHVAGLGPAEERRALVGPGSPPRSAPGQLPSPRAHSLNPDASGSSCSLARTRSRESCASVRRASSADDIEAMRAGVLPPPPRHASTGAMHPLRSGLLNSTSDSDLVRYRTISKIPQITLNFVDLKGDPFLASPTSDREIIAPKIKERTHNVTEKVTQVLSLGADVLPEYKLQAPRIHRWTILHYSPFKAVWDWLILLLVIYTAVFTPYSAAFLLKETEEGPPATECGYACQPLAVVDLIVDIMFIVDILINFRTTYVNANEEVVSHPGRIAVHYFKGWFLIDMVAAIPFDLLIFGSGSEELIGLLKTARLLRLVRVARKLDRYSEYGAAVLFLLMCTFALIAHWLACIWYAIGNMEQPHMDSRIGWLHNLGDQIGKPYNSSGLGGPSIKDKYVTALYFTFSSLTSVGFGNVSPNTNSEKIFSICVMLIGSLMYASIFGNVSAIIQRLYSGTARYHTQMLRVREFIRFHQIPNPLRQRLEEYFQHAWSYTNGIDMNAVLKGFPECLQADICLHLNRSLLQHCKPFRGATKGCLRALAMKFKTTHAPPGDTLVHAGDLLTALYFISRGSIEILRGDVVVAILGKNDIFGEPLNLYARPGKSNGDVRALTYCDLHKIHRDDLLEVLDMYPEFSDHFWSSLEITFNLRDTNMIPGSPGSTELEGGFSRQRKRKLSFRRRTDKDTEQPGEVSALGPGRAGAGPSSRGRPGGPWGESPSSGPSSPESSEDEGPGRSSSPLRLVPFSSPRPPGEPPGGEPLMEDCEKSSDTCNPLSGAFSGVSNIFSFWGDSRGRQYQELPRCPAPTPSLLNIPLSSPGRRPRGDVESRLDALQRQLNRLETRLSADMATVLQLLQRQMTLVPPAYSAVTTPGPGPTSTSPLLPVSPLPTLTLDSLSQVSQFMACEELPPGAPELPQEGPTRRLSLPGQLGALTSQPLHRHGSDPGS

| Structure (SMILES) | hERG current change (%, negative = inhibition) at 1uM |
| --- | --- |
| Cc1ccc(S(=O)(=O)N(C)Cc2ccc(-c3nnco3)cc2)cc1 | 15.1% |
| C(CCc1nn[nH]n1)CCc1nn[nH]n1 | 14% |
| O=S(=O)(c1ccccc1)N1CCCN(S(=O)(=O)c2ccccc2)CC1 | 17.5% |
| CCOc1cc(C(=S)N2CCN(C)CC2)ccc1OCC(=O)N1CCCC1 | 17.1% |
| COC(=O)c1sc(NC(=O)CSc2nc3cccnc3n2C2CCCCC2)nc1C | 11.2% |
| Cn1c(N)c(C(=O)COC(=O)C2=COCCO2)c(=O)n(C)c1=O | 5.69% |
| COc1ccc(C(CNCC(O)COc2c(C)ccc(C)c2C)N(C)C)cc1 (stereo not shown) | 6.74% |
| CCOC(=O)C(Cc1ccccc1)NC(=O)CCCC(=O)c1ccccc1 (stereo not shown) | 9.09% |
| COc1cccc(NC(=O)COC(=O)CNS(=O)(=O)c2c(F)cccc2F)c1 | 8.91% |
| O=C(NCCSc1ncc(-c2ccc(F)cc2)[nH]1)c1ccco1 | -13.8% |
| Cn1cccc1/C=N/NC(=O)c1cc(-c2cccs2)nc2ccccc12 | -3.14% |
| CCOc1ccc2nc(SC3CC(=O)N(c4ccccc4)C3=O)sc2c1 (stereo not shown) | 10.6% |
| O=C(O)c1ccn[nH]1 | 2.4% |
| CCCN1CCN(C(=O)CCS(=O)(=O)c2cc3c(cc2Cl)NC(=O)CO3)CC1 | -19.2% |
| Cc1ccsc1C(=O)N(C)CC(=O)N(CC(C)C)c1c(N)n(CC(C)C)c(=O)[nH]c1=O | 5.73% |
| O=S(=O)(/N=C(/Nc1cc(N2CCOCC2)ncn1)c1ccc(F)cc1)c1ccccc1 | -1.47% |
| c1ccc(-n2ncc3c2ncn2nc(-c4ccco4)nc32)cc1 | 17.4% |
| O=C(COc1ccccc1)N(Cc1cccs1)C1CCS(=O)(=O)C1 (stereo not shown) | 2.24% |
| O=C(COc1coc(CN2CCc3ccccc3C2)cc1=O)Nc1ccc([N+](=O)[O-])cc1 | 5.94% |
| COc1ccc(-n2c3c(cc(C(=O)N4CCCCC4)c2=O)C(=O)CC(C)(C)C3)cc1 | 14.4% |
| O=C(N/C(=C\c1ccc([N+](=O)[O-])cc1)C(=O)N1CCCCC1)c1ccco1 | -41.5% |
| CC(=O)n1cc(Nc2ccc([N+](=O)[O-])cc2)c2ccccc21 | 4.63% |

| Structure (SMILES) | hERG current change (%, negative = inhibition) at 1uM |
| --- | --- |
| CCCN(CCC)C1=CC(=[N+]2CCCC2)CC(C)(C)C1.[I-] | -42.7% |
| FC(F)Oc1ccc(NC(=S)NCC2COc3ccccc3O2)cc1 (stereo not shown) | 7.83% |
| O=C(NC1=NCCS1)c1cccc(S(=O)(=O)N2CCc3ccccc32)c1 | 12.3% |
| CCCCCCN1CC(=O)N2Cc3[nH]c4ccccc4c3C[C@H]2C1=O | 7.98% |
| CCCN1CNC(=S)N(c2ccc(C(=O)OCC)cc2)C1 | 10.9% |
| O=C1OC(N2C(=O)CC[C@H]2C(=O)NCC2CCCO2)c2ccccc21 (stereo partly shown) | 13.9% |
| CCc1cc(CNC(=O)C2CCC(=O)N(Cc3ccc(Cl)cc3)C2)on1 (stereo not shown) | -12.8% |
| Cc1cc(NS(=O)(=O)Cc2ccccc2)no1 | -0.205% |
| CCCCN(CCCC)CC(O)COc1ccc(Br)cc1 (stereo not shown) | -43.6% |
| c1ccc2oc(-c3csc(NCC4CCCO4)n3)cc2c1 (stereo not shown) | 1.08% |
| Cc1cc(C)c2nc(NC(=O)c3ccc(OCC4CCCO4)cc3)sc2c1 (stereo not shown) | 13.2% |
| CCC(C)N(C(=O)CSc1nnnn1-c1ccccc1OC)C1CCS(=O)(=O)C1 (stereo not shown) | -11% |
| CC1(c2ccc(C#N)cc2)NC(=O)N(CC(=O)Nc2cc(S(=O)(=O)N3CCOCC3)ccc2Cl)C1=O (stereo not shown) | 11.5% |
| CCCCOc1ccc(C2C(C(=O)c3ccc(C)o3)=C(O)C(=O)N2Cc2ccco2)cc1 (stereo not shown) | 10.5% |
| CN(C)C(=O)CCN1CCOCC1 | 11.1% |
| CCS(=O)(=O)c1ccc2oc(SCC(=O)N3c4ccccc4CC3C)nc2c1 (stereo not shown) | -11.1% |
| COc1ccc(C(=O)N2CCCc3ccccc32)cc1 | 5.2% |
| CCOc1ccccc1NC(=O)c1cccc(N2C(=O)CCC2=O)c1 | 12.3% |
| COc1ccc(OC)c(Nc2nc(N)nc(CSc3nnc(-c4ccncc4)o3)n2)c1 | 13.1% |
| CC(C)(C)C(=O)OCc1nc(-c2ccc(F)cc2)cs1 | 12.7% |
| COCCNC(=S)N/N=C(\C)c1cc2ccccc2o1 | -0.647% |
